Measured values: the supplement of paper PMC8728848
Some of the results follow.

Tests used:
Assay in all cases: glycan array binding signal (z-score within array); higher = stronger binding
Conditions in all cases: glycan notation: IUPAC condensed, linker removed
[1] = target: Fuc(a1-2)[GalNAc(a1-3)]Gal(b1-4)Glc
Procedure, shortened: (§1)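 Arrays were curated from the Consortium for Functional Glycomics database, 3228 in total, and kept only where the protein sequence was available. Binding is expressed as a within-array Z-score. This score was averaged across arrays of the same protein sequence at different concentrations or buffers and across linkers, and negative values can be read as non-binding.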

[2] = target: Fuc(a1-2)[GalNAc(a1-3)]Gal(b1-4)GlcNAc
Procedure, shortened: as §1

[3] = target: Fuc(a1-2)[GalNAc(a1-3)]Gal(b1-4)GlcNAc(b1-2)Man(a1-3)[Fuc(a1-2)[GalNAc(a1-3)]Gal(b1-4)GlcNAc(b1-2)Man(a1-6)]Man(b1-4)GlcNAc(b1-4)GlcNAc
Procedure, shortened: as §1

[4] = target: Fuc(a1-2)[GalNAc(a1-3)]Gal(b1-4)GlcNAc(b1-2)Man(a1-3)[Fuc(a1-2)[GalNAc(a1-3)]Gal(b1-4)GlcNAc(b1-2)Man(a1-6)]Man(b1-4)GlcNAc(b1-4)[Fuc(a1-6)]GlcNAc
Procedure, shortened: as §1

[5] = target: Fuc(a1-2)[GalNAc(a1-3)]Gal(b1-4)GlcNAc(b1-3)Gal(b1-4)GlcNAc
Procedure, shortened: as §1

[6] = target: Fuc(a1-2)[GalNAc(a1-3)]Gal(b1-4)GlcNAc(b1-3)Gal(b1-4)GlcNAc(b1-3)Gal(b1-4)GlcNAc
Procedure, shortened: as §1

[7] = target: Fuc(a1-2)[GalNAc(a1-3)]Gal(b1-4)GlcNAc(b1-3)GalNAc
Procedure, shortened: as §1

[8] = target: Fuc(a1-2)[GalNAc(a1-3)]Gal(b1-4)[Fuc(a1-3)]GlcNAc
Procedure, shortened: as §1

[9] = target: Fuc(a1-2)[GalNAc(a1-3)]Gal(b1-4)[Fuc(a1-3)]GlcNAc(b1-3)GalNAc
Procedure, shortened: as §1

[10] = target: Fuc(a1-2)[GalNAc(a1-4)]Gal(b1-4)GlcNAc
Procedure, shortened: as §1

[11] = target: Fuc(a1-2)[GalNAc(b1-3)]Gal
Procedure, shortened: as §1

Fuc(a1-3)GlcNAc = target: Fuc(a1-3)GlcNAc
Procedure, shortened: as §1

[12] = target: Fuc(a1-3)[Gal(b1-4)]Glc6S
Procedure, shortened: as §1

[13] = target: Fuc(a1-3)[Gal(b1-4)]GlcNAc
Procedure, shortened: as §1

[14] = target: Fuc(a1-3)[Gal(b1-4)]GlcNAc(b1-2)Man(a1-3)[Fuc(a1-3)[Gal(b1-4)]GlcNAc(b1-2)Man(a1-6)]Man(b1-4)GlcNAc(b1-4)GlcNAc
Procedure, shortened: as §1

[15] = target: Fuc(a1-3)[Gal(b1-4)]GlcNAc(b1-2)Man(a1-3)[Fuc(a1-3)[Gal(b1-4)]GlcNAc(b1-2)Man(a1-6)]Man(b1-4)GlcNAc(b1-4)[Fuc(a1-6)]GlcNAc
Procedure, shortened: as §1

[16] = target: Fuc(a1-3)[Gal(b1-4)]GlcNAc(b1-3)Gal(b1-3)[Fuc(a1-4)]GlcNAc
Procedure, shortened: as §1

[17] = target: Fuc(a1-3)[Gal(b1-4)]GlcNAc(b1-3)GalNAc
Procedure, shortened: as §1

[18] = target: Fuc(a1-3)[Gal(b1-4)]GlcNAc(b1-4)Gal(b1-4)[Fuc(a1-3)]GlcNAc
Procedure, shortened: as §1

[19] = target: Fuc(a1-3)[Gal(b1-4)]GlcNAc(b1-4)Gal(b1-4)[Fuc(a1-3)]GlcNAc(b1-4)Gal(b1-4)[Fuc(a1-3)]GlcNAc
Procedure, shortened: as §1

[20] = target: Fuc(a1-3)[Gal(b1-4)]GlcNAc(b1-6)GalNAc
Procedure, shortened: as §1

[21] = target: Fuc(a1-3)[Gal(b1-4)]GlcNAc(b1-6)[Gal(b1-3)GlcNAc(b1-3)]Gal(b1-4)Glc
Procedure, shortened: as §1

[22] = target: Fuc(a1-3)[Gal(b1-4)]GlcNAc(b1-6)[Neu5Ac(a2-3)Gal(b1-3)]GalNAc
Procedure, shortened: as §1

[23] = target: Fuc(a1-3)[Gal(b1-4)]GlcNAc6S
Procedure, shortened: as §1

[24] = target: Fuc(a1-3)[Gal3S(b1-4)]GlcNAc
Procedure, shortened: as §1

[25] = target: Fuc(a1-3)[Gal3S(b1-4)]GlcNAc6S
Procedure, shortened: as §1

[26] = target: Fuc(a1-3)[GalNAc(b1-4)]GlcNAc
Procedure, shortened: as §1

Fuc(a1-4)GlcNAc = target: Fuc(a1-4)GlcNAc
Procedure, shortened: as §1

Fuc(b1-3)GlcNAc = target: Fuc(b1-3)GlcNAc
Procedure, shortened: as §1

Gal(a1-2)Gal = target: Gal(a1-2)Gal
Procedure, shortened: as §1

Gal(a1-3)Gal = target: Gal(a1-3)Gal
Procedure, shortened: as §1

Gal(a1-3)Gal(b1-3)GlcNAc = target: Gal(a1-3)Gal(b1-3)GlcNAc
Procedure, shortened: as §1

[27] = target: Gal(a1-3)Gal(b1-3)GlcNAc(b1-2)Man(a1-3)[Gal(a1-3)Gal(b1-3)GlcNAc(b1-2)Man(a1-6)]Man(b1-4)GlcNAc(b1-4)GlcNAc
Procedure, shortened: as §1

[28] = target: Gal(a1-3)Gal(b1-3)GlcNAc(b1-3)GalNAc
Procedure, shortened: as §1

[29] = target: Gal(a1-3)Gal(b1-3)[Fuc(a1-4)]GlcNAc(b1-2)Man(a1-3)[Gal(a1-3)Gal(b1-3)[Fuc(a1-4)]GlcNAc(b1-2)Man(a1-6)]Man(b1-4)GlcNAc(b1-4)GlcNAc
Procedure, shortened: as §1

Gal(a1-3)Gal(b1-4)Glc = target: Gal(a1-3)Gal(b1-4)Glc
Procedure, shortened: as §1

Gal(a1-3)Gal(b1-4)GlcNAc = target: Gal(a1-3)Gal(b1-4)GlcNAc
Procedure, shortened: as §1

B1: Gal 9 (Canis lupus) (protein)
chain: MAFSSSQPPYLSPGVPFSGKIQGGLQDGLKITINGTILYCNGTRFAVNFHSGHSDSDIAFHFNPRFEEGGYVVCNTKQKGSWGSEERKMQMPFQMGNPFELCFMVNSCDFKVTVNGSHFTQYSHRVPFHYVDTLSITGAVQLSYISFQSPGVWQSSSAPITQTVIHTVQTTPGQPFPNPIIPPTAYPTPTYPMPFFTSIPGGLYPSKSIIVSGTVLPGAKRFHINLRSGNDIAFHLNPRFNENTVVRNMQINNSWGSEERSLPRKMPFVQGQSFSVWIMCEGHCFKVAVDGEHLFEYYHRLKNLLAINNMEVAGDVQLTHVQT
[1]
  glycan array binding signal (z-score): 2.88
[2]
  glycan array binding signal (z-score): 1.39
[3]
  glycan array binding signal (z-score): 9.39
[4]
  glycan array binding signal (z-score): 1.52
[5]
  glycan array binding signal (z-score): 5.36
[6]
  glycan array binding signal (z-score): 2.68
[7]
  glycan array binding signal (z-score): 0.072
[8]
  glycan array binding signal (z-score): -0.321
[9]
  glycan array binding signal (z-score): -0.288
[10]
  glycan array binding signal (z-score): -0.322
[11]
  glycan array binding signal (z-score): -0.025
Fuc(a1-3)GlcNAc
  glycan array binding signal (z-score): -0.339
[12]
  glycan array binding signal (z-score): -0.312
[13]
  glycan array binding signal (z-score): -0.334
[14]
  glycan array binding signal (z-score): -0.336
[15]
  glycan array binding signal (z-score): -0.297
[16]
  glycan array binding signal (z-score): -0.332
[17]
  glycan array binding signal (z-score): -0.298
[18]
  glycan array binding signal (z-score): -0.334
[19]
  glycan array binding signal (z-score): -0.299
[20]
  glycan array binding signal (z-score): -0.273
[21]
  glycan array binding signal (z-score): -0.156
[22]
  glycan array binding signal (z-score): 0.077
[23]
  glycan array binding signal (z-score): -0.337
[24]
  glycan array binding signal (z-score): -0.336
[25]
  glycan array binding signal (z-score): -0.036
[26]
  glycan array binding signal (z-score): -0.333
Fuc(a1-4)GlcNAc
  glycan array binding signal (z-score): -0.346
Fuc(b1-3)GlcNAc
  glycan array binding signal (z-score): -0.345
Gal(a1-2)Gal
  glycan array binding signal (z-score): -0.348
Gal(a1-3)Gal
  glycan array binding signal (z-score): -0.349
Gal(a1-3)Gal(b1-3)GlcNAc
  glycan array binding signal (z-score): 0.12
[27]
  glycan array binding signal (z-score): -0.303
[28]
  glycan array binding signal (z-score): 0.104
[29]
  glycan array binding signal (z-score): -0.292
Gal(a1-3)Gal(b1-4)Glc
  glycan array binding signal (z-score): 0.126
Gal(a1-3)Gal(b1-4)GlcNAc
  glycan array binding signal (z-score): 0.251
